{
  "source": "PubChem BioAssay (NCATS)",
  "key": {"[1]": {"test": "qHTS of pediatric cancer cell lines to identify multiple opportunities for drug repurposing: Primary screen for RD cells (AID 1347104); further: nearly all actives have a fitted effect of over 55% in size;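 on activity change, negative = cytotoxic: plate controls were DMSO for no effect and bortezomib for full effect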", "how_it_was_run": "(§1)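 Quantitative HTS format: each compound titrated (MIPE 11 points from 0.78 nM, NPC 8 points from 0.59 nM) onto cells plated 5 hours earlier. After 48 h at 37 degrees C, CellTiter-Glo luminescence was recorded.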"}, "[2]": {"test": "qHTS of pediatric cancer cell lines to identify multiple opportunities for drug repurposing: Primary screen for MG 63 (6-TG R) cells (AID 1347105)", "conditions": "MG 63 (6-TG R) viability, CellTiter-Glo, 48 h; activity change, negative = cytotoxic: at 46 µM (top of the series) unless noted", "how_it_was_run": "as §1"}, "[3]": {"test": "qHTS of pediatric cancer cell lines to identify multiple opportunities for drug repurposing: Primary screen for Rh41 cells (AID 1347108)", "how_it_was_run": "as §1"}, "[4]": {"test": "qHTS of pediatric cancer cell lines to identify multiple opportunities for drug repurposing: Confirmatory screen for NB1643 cells (AID 1347109)", "conditions": "NB1643 neuroblastoma cell viability; activity change, negative = cytotoxic: at 45.9 µM (top of the series) unless noted", "how_it_was_run": "(§2)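 Viability after 48 h compound treatment at 37C, 500-1,000 cells/well, read as ATP luminescence with CellTiter-Glo. Primary screens used 11-point (MIPE, 0.78 nM-46 µM) or 8-point (NPC, 0.59 nM-46 µM) final concentrations; follow-up screens used 11-point dilutions.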"}, "[5]": {"test": "qHTS of pediatric cancer cell lines to identify multiple opportunities for drug repurposing: Confirmatory screen for BT-12 cells (AID 1347112)", "how_it_was_run": "as §2"}, "[6]": {"test": "qHTS of pediatric cancer cell lines to identify multiple opportunities for drug repurposing: Primary screen for Rh30 cells (AID 1347107)", "how_it_was_run": "as §2"}, "[7]": {"test": "qHTS of pediatric cancer cell lines to identify multiple opportunities for drug repurposing: Primary screen for control Hh wild type fibroblast cells (AID 1347106)", "how_it_was_run": "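Cells (500-1,000/well) in growth media were settled 5 h at 37 degrees C, then given compounds for 48 h. Viability was read as CellTiter-Glo luminescence. Primary runs used MIPE at 11 points (0.78 nM-46 µM) and NPC at 8 points (0.59 nM-46 µM); follow-ups used 11 points.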"}, "[8]": {"test": "qHTS of pediatric cancer cell lines to identify multiple opportunities for drug repurposing: Confirmatory screen for A673 cells (AID 1347110)", "how_it_was_run": "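Forty-eight-hour viability assay. Follow-up compounds ran at 11-point dilutions; positive control bortezomib at 2.3 uM final, neutral control DMSO.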"}, "[9]": {"test": "qHTS of pediatric cancer cell lines to identify multiple opportunities for drug repurposing: Confirmatory screen for SK-N-MC cells (AID 1347111)", "how_it_was_run": "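SK-N-MC cells at 500-1,000 cells/well in growth media were pre-incubated 5 h, then exposed to compounds at 11-point dilutions for 48 h at 37 degrees C, 5% CO2. Viability was read as CellTiter-Glo luminescence.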"}},
  "note": "Values joined by “and” are separate entries in the source; they are usually repeats but may differ in a detail not shown here. Equal entries are not always repeated. Inconclusive means that the source gave no clear call. Such entries were picked first, then a sample of the others. Where the call is inconclusive, the potency comes from a doubtful curve fit. Active and inactive are the calls of the source. The call rests on the fitted dose curve; in most records, active means well fitted curve in the direction sought with a large enough effect; inconclusive means small, poorly fitted or top-dose-only effect, or another doubt; inactive means no such curve, though single readings can be large; an effect the other way counts as inactive or inconclusive. Potency means the concentration at half of the fitted maximal effect; tags describe the fitted curve by direction and shape.",
  "data": [
    {"smiles": "COc1ccc2c(C(=O)c3ccc(Cl)cc3)c(C)n(CC(=O)O)c2c1", "values": [
      {"measurement": "Potency", "setting": "[1]", "result": "inactive"},
      {"measurement": "activity change, negative = cytotoxic", "setting": "[2]", "result": "inconclusive: -50.9% [cytotoxic]"},
      {"measurement": "Potency", "setting": "[3]", "result": "inconclusive: 23.7 µM [cytotoxic, single point]"},
      {"measurement": "Potency", "setting": "[4]", "result": "inactive"},
      {"measurement": "Potency", "setting": "[5]", "result": "inactive"}
    ]},
    {"smiles": "O=C(N[C@@H](COc1ccc2[nH]c(=O)[nH]c2c1)c1ccccc1)c1cccn(Cc2ccc(F)c(F)c2)c1=O", "values": [
      {"measurement": "Potency", "setting": "[1]", "result": "inconclusive: 20.9 µM [cytotoxic, partial curve]"},
      {"measurement": "Potency", "setting": "[2]", "result": "inconclusive: 1.87 µM [cytotoxic, full curve, poor fit]"},
      {"measurement": "Potency", "setting": "[3]", "result": "inconclusive: 14.8 µM [cytotoxic, partial curve]"}
    ]},
    {"smiles": "C=C(C)[C@H]1Cc2c(ccc3c2O[C@@H]2COc4cc(OC)c(OC)cc4[C@@H]2C3=O)O1", "values": [
      {"measurement": "Potency", "setting": "[1]", "result": "inconclusive: 188 nM [cytotoxic, full curve] and inconclusive: 662 nM [cytotoxic, full curve]"},
      {"measurement": "Potency", "setting": "[2]", "result": "inconclusive: 42.2 nM [cytotoxic, full curve, poor fit] and inconclusive: 1.87 µM [cytotoxic, full curve]"},
      {"measurement": "Potency", "setting": "[6]", "result": "inconclusive: 0.668 µM [cytotoxic, partial curve]"},
      {"measurement": "Potency", "setting": "[3]", "result": "active: 1.06 µM and inconclusive: 2.35 µM [cytotoxic, full curve]"},
      {"measurement": "Potency", "setting": "[4]", "result": "inconclusive: 1.04 µM [cytotoxic, full curve]"}
    ]},
    {"smiles": "CC=C(C)C(=O)O[C@H]1C(C)=C2[C@@H]3OC(=O)[C@@](C)(O)[C@@]3(O)[C@@H](OC(=O)CCC)C[C@](C)(OC(C)=O)[C@@H]2[C@@H]1OC(=O)CCCCCCC", "values": [
      {"measurement": "Potency", "setting": "[1]", "result": "active: 0.0209 µM"},
      {"measurement": "Potency", "setting": "[7]", "result": "inconclusive: 0.187 µM [cytotoxic, full curve]"},
      {"measurement": "Potency", "setting": "[6]", "result": "active: 1.32 µM"},
      {"measurement": "Potency", "setting": "[3]", "result": "active: 0.209 µM"},
      {"measurement": "Potency", "setting": "[4]", "result": "inactive"},
      {"measurement": "Potency", "setting": "[8]", "result": "inactive"},
      {"measurement": "Potency", "setting": "[9]", "result": "inactive"},
      {"measurement": "Potency", "setting": "[5]", "result": "inconclusive: 0.0012 µM [rising, full curve]"}
    ]},
    {"smiles": "Cc1nnc2n1-c1sc(CCc3ccc(CC(C)C)cc3)cc1C(c1ccccc1Cl)=NC2C", "note": "(stereo unspecified)", "values": [
      {"measurement": "Potency", "setting": "[1]", "result": "inconclusive: 29.9 µM [cytotoxic, single point]"},
      {"measurement": "Potency", "setting": "[2]", "result": "inconclusive: 33.5 µM [cytotoxic, single point]"},
      {"measurement": "Potency", "setting": "[3]", "result": "inconclusive: 29.9 µM [cytotoxic, single point]"}
    ]},
    {"smiles": "C=CCON=C(C[C@H]1O[C@@H]2O[C@]3(C)CC[C@@H]4[C@H](C)CC[C@@H]([C@H]1C)[C@@]24OO3)[C@H]1O[C@@H]2O[C@]3(C)CC[C@H]4[C@H](C)CC[C@@H]([C@@H]1C)[C@@]24OO3", "values": [
      {"measurement": "Potency", "setting": "[1]", "result": "inconclusive: 0.209 µM [cytotoxic, full curve]"},
      {"measurement": "Potency", "setting": "[2]", "result": "inconclusive: 1.87 µM [cytotoxic, full curve]"},
      {"measurement": "Potency", "setting": "[3]", "result": "active: 0.469 µM"},
      {"measurement": "Potency", "setting": "[8]", "result": "inconclusive: 0.414 µM [cytotoxic, partial curve]"}
    ]},
    {"smiles": "CNC(C)Cc1ccc2c(c1)OCO2", "note": "(stereo unspecified)", "values": [
      {"measurement": "Potency", "setting": "[1]", "result": "inconclusive: 66.9 µM [cytotoxic, single point]"},
      {"measurement": "Potency", "setting": "[2]", "result": "inactive"},
      {"measurement": "Potency", "setting": "[3]", "result": "inconclusive: 23.7 µM [cytotoxic, partial curve]"}
    ]},
    {"smiles": "ClC1=C(Cl)[C@]2(Cl)[C@@H]3[C@@H]4C[C@@H]([C@H]5O[C@@H]45)[C@@H]3[C@@]1(Cl)C2(Cl)Cl", "values": [
      {"measurement": "Potency", "setting": "[1]", "result": "inconclusive: 30.6 µM [cytotoxic, partial curve]"},
      {"measurement": "Potency", "setting": "[2]", "result": "inconclusive: 24.3 µM [cytotoxic, partial curve, poor fit]"},
      {"measurement": "Potency", "setting": "[3]", "result": "inconclusive: 24.3 µM [cytotoxic, single point]"}
    ]},
    {"smiles": "C[C@@]12OC(=O)[C@]1([C@@H](O)[C@@H]1C=CCCC1)NC(=O)[C@H]2CCCl", "values": [
      {"measurement": "Potency", "setting": "[1]", "result": "active: 0.0526 µM"},
      {"measurement": "Potency", "setting": "[7]", "result": "active: 0.0935 µM"},
      {"measurement": "Potency", "setting": "[6]", "result": "active: 5.9 µM"},
      {"measurement": "Potency", "setting": "[3]", "result": "active: 0.059 µM"},
      {"measurement": "Potency", "setting": "[9]", "result": "inconclusive: 0.0928 µM [cytotoxic, full curve, poor fit]"}
    ]},
    {"smiles": "Cc1[nH]nc2ccc(-c3cncc(OC[C@@H](N)Cc4c[nH]c5ccccc45)c3)cc12", "values": [
      {"measurement": "Potency", "setting": "[1]", "result": "active: 1.48 µM"},
      {"measurement": "Potency", "setting": "[7]", "result": "inconclusive: 16.6 µM [cytotoxic, partial curve]"},
      {"measurement": "Potency", "setting": "[6]", "result": "active: 14.8 µM"}
    ]},
    {"smiles": "CC[C@H](O)C(C[C@H](C)N(C)C)(c1ccccc1)c1ccccc1", "values": [
      {"measurement": "Potency", "setting": "[1]", "result": "inconclusive: 44.1 µM [cytotoxic, single point]"},
      {"measurement": "Potency", "setting": "[2]", "result": "inconclusive: 55.6 µM [cytotoxic, partial curve, poor fit]"},
      {"measurement": "Potency", "setting": "[6]", "result": "inconclusive: 62.3 µM [cytotoxic, single point]"}
    ]},
    {"smiles": "Cc1c(C(=O)Nc2cccc(C(F)(F)F)c2)cc(-c2ccccc2)n1CCCN1CCOCC1", "values": [
      {"measurement": "Potency", "setting": "[1]", "result": "active: 18.7 µM"},
      {"measurement": "Potency", "setting": "[2]", "result": "inconclusive: 3.72 µM [cytotoxic, partial curve]"},
      {"measurement": "Potency", "setting": "[6]", "result": "inconclusive: 18.7 µM [cytotoxic, partial curve]"},
      {"measurement": "Potency", "setting": "[3]", "result": "inconclusive: 18.7 µM [cytotoxic, partial curve]"},
      {"measurement": "Potency", "setting": "[8]", "result": "inconclusive: 42.7 µM [cytotoxic, single point]"},
      {"measurement": "Potency", "setting": "[5]", "result": "inconclusive: 47.9 µM [cytotoxic, single point]"}
    ]}
  ]
}
